Test results reported in publication PMC4336329 (PLoS ONE, 2015).
In all, about 310,000 compounds went through this assay and about 14,000 (4.5%) showed an effect of 50% or more. The effect is printed as a negative number. The list shows a part of the results.

Target: human ether-à-go-go-related gene (hERG) potassium channel (human, UniProt Q12809)
Test: primary screen, population patch clamp on CHO cells stably expressing hERG
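Also: peak tail current of the secondary pulse compared with the same well before compound.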

Chain of human ether-à-go-go-related gene (hERG) potassium channel (Q12809 whole entry, looked up): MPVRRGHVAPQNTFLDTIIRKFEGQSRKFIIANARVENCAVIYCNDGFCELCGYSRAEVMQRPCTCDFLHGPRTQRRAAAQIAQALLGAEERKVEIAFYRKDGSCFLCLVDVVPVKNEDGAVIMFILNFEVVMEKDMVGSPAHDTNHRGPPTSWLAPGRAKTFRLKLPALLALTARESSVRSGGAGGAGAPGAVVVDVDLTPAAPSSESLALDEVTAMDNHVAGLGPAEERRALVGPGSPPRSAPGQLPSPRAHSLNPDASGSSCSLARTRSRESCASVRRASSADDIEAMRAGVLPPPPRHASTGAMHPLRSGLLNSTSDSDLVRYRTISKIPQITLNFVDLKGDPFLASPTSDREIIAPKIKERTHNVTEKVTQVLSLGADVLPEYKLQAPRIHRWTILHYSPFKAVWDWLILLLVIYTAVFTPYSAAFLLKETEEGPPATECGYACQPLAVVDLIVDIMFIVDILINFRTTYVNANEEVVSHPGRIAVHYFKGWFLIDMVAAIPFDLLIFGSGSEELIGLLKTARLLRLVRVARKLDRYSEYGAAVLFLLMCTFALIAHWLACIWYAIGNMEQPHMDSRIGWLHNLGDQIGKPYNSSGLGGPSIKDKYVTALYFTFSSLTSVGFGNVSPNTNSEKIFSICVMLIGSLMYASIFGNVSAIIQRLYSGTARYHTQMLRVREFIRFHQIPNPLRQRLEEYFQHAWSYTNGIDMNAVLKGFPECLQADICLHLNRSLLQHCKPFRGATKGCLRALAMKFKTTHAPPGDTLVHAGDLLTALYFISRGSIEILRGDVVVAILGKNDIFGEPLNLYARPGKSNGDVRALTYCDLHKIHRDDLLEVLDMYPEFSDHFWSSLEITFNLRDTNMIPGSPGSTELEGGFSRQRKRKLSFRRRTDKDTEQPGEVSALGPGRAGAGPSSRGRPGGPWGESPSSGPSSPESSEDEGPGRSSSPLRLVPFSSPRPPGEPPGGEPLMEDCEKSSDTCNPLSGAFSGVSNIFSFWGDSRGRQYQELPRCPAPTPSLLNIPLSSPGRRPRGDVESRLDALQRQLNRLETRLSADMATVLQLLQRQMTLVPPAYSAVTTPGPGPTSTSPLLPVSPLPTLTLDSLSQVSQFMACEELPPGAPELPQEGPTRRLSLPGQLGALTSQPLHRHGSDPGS

| SMILES | hERG current change (%, negative = inhibition) at 10uM [%] |
| --- | --- |
| CCCCN(CC)CCNC(=O)C1CCCN(S(=O)(=O)c2cccc3nsnc23)C1 (stereo not shown) | -33.8 |
| CCc1ccc(NC(=O)CCN2C(=O)c3cccnc3C2=O)cc1 | 4.78 |
| O=C(O)c1cccc(NC(=O)c2ccc(CN3C(=O)c4ccccc4C3=O)cc2)c1 | 10.5 |
| COc1cccc(C(=O)NCc2ccc(N3CCN(C(=O)OC(C)(C)C)CC3)cc2)c1 | -5.42 |
| COc1cc(SC)ccc1C(=O)N(Cc1ccccc1)c1ccccn1 | -10.2 |
| COc1ccccc1Cn1nnc2c(=O)[nH]c(C3CCN(C(=O)c4ccccc4Cl)CC3)nc21 | 12.9 |
| CCN(CC(=O)Nc1ccc2c(c1)OCCO2)C(=O)C(C)Oc1ccc(Cl)cc1 (stereo not shown) | 11.8 |
| O=C(Cc1ccc(Br)cc1)Nc1ccc(S(=O)(=O)NCC2CCCO2)cc1 (stereo not shown) | -2.27 |
| C/C(Cc1ccccc1)=N\NC(=O)CNC(=O)c1cccc(F)c1 | 2.42 |
| CCOC(=O)/C(=N\Nc1ccccc1Cl)N1CCN(c2ccccc2OC)CC1 | 16.5 |
| N#Cc1cccc(S(=O)(=O)NCC(=O)NCCCc2ccccc2)c1 | 0.461 |
| Cc1ccc(C(=O)CN2CCC(NC(=O)C3CCCCC3)CC2)cc1 | -15.3 |
| CC1=CC(C)(C)N(C)C(=O)N1c1ccc(Cl)cc1 | 13 |
| C=CCNC(=S)N1CCN(S(=O)(=O)c2ccc(C)cc2)CC1 | -5.13 |
| COc1cccc(N=Nc2ccc3cccnc3c2O)c1 | -47.7 |
| Cn1c(=O)c2c(nc(SCC(=O)NC34CC5CC(CC(C5)C3)C4)n2C)n(C)c1=O | -21.8 |
| CCOc1ccc2c(c1)C(N(CCN1CCOCC1)C(=S)Nc1ccccc1OC)CC(C)(C)O2 (stereo not shown) | -24.9 |
| Cc1cccc(NC2=C/C(=N/S(=O)(=O)c3cccs3)c3ccccc3C2=O)c1 | 11.6 |
| CN1CCN(C(=O)/C(=C/c2cn(S(=O)(=O)N(C)C)c3ccccc23)NC(=O)c2ccccc2)CC1 | 0.665 |
| COCCN(C(=O)CN1CCc2ccccc21)c1c(N)n(Cc2ccccc2)c(=O)[nH]c1=O | 5.33 |
| COC(=O)C1CCN(C(=O)c2ccc3oc(Cc4ccc(Cl)cc4)nc3c2)CC1 | -20.5 |
| CC(C)CN(C(=O)CCNC(=O)c1ccccc1Cl)C1CCS(=O)(=O)C1 (stereo not shown) | -1.75 |
| Cc1ccc(C(=O)N2CCN(c3ncccn3)CC2)cc1 | 12.6 |
| OCCN1CCOCCOc2ccccc2OCCOCC1 | 1.57 |
| CC1CC1c1ccc(/C=C(\C#N)C(=O)Nc2ccc(Cl)cc2)o1 (stereo not shown) | 15.1 |
| c1csc(CN2CCN(Cc3cccs3)C2c2cccs2)c1 | -14.3 |
| COc1cc2c(cc1OC)CN(Cc1cc(=O)n3c(-c4ccccc4)csc3n1)CC2 | -6.01 |
| C/C(=N\Nc1cccc2cccnc12)c1ccc(C)cc1 | -5.89 |

| SMILES | hERG current change (%, negative = inhibition) at 10uM [%] |
| --- | --- |
| CC1=C(C(=O)OCc2ccccc2)C(c2ccccc2)NC(=O)N1CCCC(=O)O (stereo not shown) | -15.9 |
| COc1ccc(CC(=O)NC2CCN(Cc3nnnn3C(C)(C)C)CC2)cc1OC | 20.7 |
| N#Cc1c(/N=C/c2ccc(-c3ccc(C(=O)O)c(Cl)c3)o2)sc2c1CCCC2 | 17.2 |
| COCCOc1cc(-n2cccc2)c(Cl)cc1Cl | -2.33 |
| NC(=O)c1cc([N+](=O)[O-])ccc1NCc1cccc([N+](=O)[O-])c1 | -9.38 |
| COc1ccccc1CNC(=O)CSc1nc2ccccc2c(=O)n1CCCN1CCOCC1 | -56 |
| COc1ccc(NC(=O)c2cccnc2SC)cc1S(=O)(=O)N1CCCCC1 | -8.17 |
| CC(=O)Nc1c(C)nn(-c2ccc(C)c(C)c2)c1C | 2.17 |
| CCOC(=O)/C(N=Nc1c(Br)cc(Br)cc1Br)=C(\C)O | 6.47 |
| CC12CCC(C(=O)NCc3ccccn3)(OC1=O)C2(C)C (stereo not shown) | 14.4 |
| O=S(=O)(Nc1cccnc1)c1ccccc1 | 7.82 |
| CC(=O)n1nc2nc(C)cc(C)c2c1N | 13.9 |
| O=C(Cc1ccccc1)Oc1cccc(-n2cnnn2)c1 | 18.3 |
| CCN1CCN(c2nc(Nc3ccc(NC(C)=O)cc3)nc(Nc3ccc(NC(C)=O)cc3)n2)CC1 | -11.5 |
| O=C(Nc1ccc(N2CCN(C(=O)c3cccs3)CC2)cc1)c1ccccc1F | -0.953 |
| Cc1c(C(=O)C(=O)N2CCOCC2)c2ccccc2n1Cc1ccccc1 | -12.5 |
| CCn1c(Cc2ccccc2)nnc1SCC(=O)Nc1nc(C)c(C)s1 | 9.3 |
| O=C(NCCc1ccccc1)C1CC(=O)N(C2CCCCCC2)C1 (stereo not shown) | 3.33 |
| O=C(COc1ccc(Cl)cc1)N1CCN(Cc2ccccc2)CC1 | -32.9 |
| CC(=O)c1ccc(OCCCC(=O)OCC(=O)Nc2ccc3[nH]c(=O)[nH]c3c2)cc1 | 8.89 |
| O=C1c2ccsc2SCCN1Cc1c(Cl)cccc1Cl | -41.9 |
| CN(C)S(=O)(=O)c1ccc(-c2csc(N/N=C/c3ccco3)n2)cc1 | 4.24 |
| c1ccc2oc(SCc3cn4ccccc4n3)nc2c1 | -25.3 |
| CCN(CC)c1ccc(/C=C2\C(=O)NC(=S)N(C)C2=O)o1 | -11.4 |
| COc1ccc2c(C(=O)CN3CCC(C)CC3)c[nH]c2c1 | -20.6 |
| CC(C)OCCCn1c(=NC(=O)c2ccncc2)c(C#N)cc2c(=O)n3ccccc3nc21 | -74.2 |
| Cc1ccc(N(CC(=O)NC2CCCCC2)C(=O)Cn2nnc(-c3ccc(C)o3)n2)cc1 | -35.3 |
